The values below come from the supplement of paper PMC10369915.

The other results are listed elsewhere or left out. Cut-off read from the data, not from the text of the source: active = 3.2 or more and inactive = the rest. The signal is at background level for most entries.

B1: EMD_HUMAN_155_YA (peptide)
chain: KDRERPMYGRDSAAQ
B2: EMD_HUMAN_85 (peptide)
chain: KKEDALLYQSKGYND
B3: EGFR_HUMAN_1197 (peptide)
chain: STAENAEYLRVAPQS
B4: ELP3_HUMAN_202 (peptide)
chain: GHTSNNIYEAVKYSE
B5: EPHA2_HUMAN_772 (peptide)
chain: EDDPEATYTTSGGKI
B6: EPHA2_HUMAN_628 (peptide)
chain: AGEFGEVYKGMLKTS
B7: EMD_HUMAN_99_YA (peptide)
chain: DDAAEESYFTTRTAG
B8: EMD_HUMAN_41 (peptide)
chain: YEKKIFEYETQRRRL
B9: EMD_HUMAN_105 (peptide)
chain: SYFTTRTYGEPESAG
B10: ELMO1_HUMAN_216 (peptide)
chain: VLNSHDLYQKVAQEI
B11: EMD_HUMAN_105_YA (peptide)
chain: SAFTTRTYGEPESAG
B12: ENOG_HUMAN_236 (peptide)
chain: EAIDKAGYTEKIVIG
B13: EGFR_HUMAN_1125 (peptide)
chain: APSRDPHYQDPHSTA
B14: ACVL1_HUMAN_361 (peptide)
chain: MHSQGSDYLDIGNNP
B15: EPHA2_HUMAN_594 (peptide)
chain: TYVDPHTYEDPNQAV
B16: EPHA3_HUMAN_596 (peptide)
chain: KLPGLRTYVDPHTYE
B17: EIF3E_HUMAN_445 (peptide)
chain: ATQDSGFYGGGGGGG
B18: ACSL1_HUMAN_84_YA (peptide)
chain: DSDEPLVYFADDVTT
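Note: displayed peptides selected on beads carrying the immobilized SH2 domain, with library peptides lacking any tyrosine serving as negative controls.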

The target of the first assay is SHP2 C-SH2 domain E139D. Kind of assay: enrichment score (SH2-bound / input frequency) (ratio); bacterial display of known human phosphotyrosine sites (pTyr-Var adds point mutants) read by sequencing; higher = stronger binding; tyrosines were phosphorylated by kinases first. To be noted: peptide library: Human pTyr.
Take B1: the enrichment score was inactive: 1.76.

Turning to B2, the enrichment score is inactive: 0.853.

As for B3, the enrichment score is inactive: 0.522.

Consider B4, for which the enrichment score is inactive: 0.751.

Turning to B5, the enrichment score is inactive: 0.842.

For B6, the enrichment score is inactive: 0.744.

Consider B7, for which the enrichment score is inactive: 0.898.

With B8, the enrichment score was inactive: 0.951.

Turning to B9, the enrichment score was inactive: 0.786.

For B10, the enrichment score was inactive: 0.705.

B11: the enrichment score is inactive: 0.55.

For B12, the enrichment score was inactive: 0.776.

Regarding B13, the enrichment score was inactive: 0.811.

In the case of B14, the enrichment score was inactive: 0.502.

For the molecule B15, the enrichment score is inactive: 0.682.

For B16, the enrichment score was inactive: 0.627.

For B17, the enrichment score is inactive: 0.802.

Turning to B18, the enrichment score was inactive: 1.3.

The target of the next assay is SHP2 C-SH2 domain wild-type. The assay is described as above. To be noted: peptide library: Human pTyr.
In the case of B1, the enrichment score is inactive: 1.08.

For the molecule B2, the enrichment score is inactive: 0.804.

Consider B3, for which the enrichment score is inactive: 0.551.

For B4, the enrichment score was inactive: 0.787.

As to B5, the enrichment score was inactive: 0.604.

As for B6, the enrichment score is inactive: 0.774.

For B7, the enrichment score was inactive: 0.706.

For the molecule B8, the enrichment score was inactive: 0.815.

With B9, the enrichment score is inactive: 0.818.

In the case of B10, the enrichment score is inactive: 0.723.

Consider B11, for which the enrichment score was inactive: 0.489.

For B12, the enrichment score was inactive: 0.634.

As to B13, the enrichment score was inactive: 0.61.

Consider B14, for which the enrichment score was inactive: 0.455.

As for B15, the enrichment score was inactive: 0.83.

Consider B16, for which the enrichment score is inactive: 0.614.

On to B17, for which the enrichment score was inactive: 0.538.

As for B18, the enrichment score was inactive: 0.983.

Another assay deals with SHP2 N-SH2 domain L43F. The assay is described as above. To be noted: peptide library: Human pTyr.
Turning to B1, the enrichment score is inactive: 1.14.

Consider B2, for which the enrichment score was inactive: 0.741.

Consider B3, for which the enrichment score was inactive: 0.496.

Take B4: the enrichment score is inactive: 0.783.

As to B5, the enrichment score was inactive: 0.756.

As to B6, the enrichment score is inactive: 0.561.

On to B7, for which the enrichment score is inactive: 0.995.

As for B8, the enrichment score is inactive: 1.43.

As to B9, the enrichment score was inactive: 0.707.

Turning to B10, the enrichment score was inactive: 0.721.

Take B11: the enrichment score was inactive: 0.494.

For B12, the enrichment score is inactive: 0.602.

On to B13, for which the enrichment score is inactive: 0.628.

As for B14, the enrichment score is inactive: 0.586.

With B15, the enrichment score is inactive: 0.852.

In the case of B16, the enrichment score is inactive: 0.553.

With B17, the enrichment score was inactive: 0.584.

On to B18, for which the enrichment score is inactive: 1.13.

Another assay deals with SHP2 N-SH2 domain T42A. Described as above. To be noted: peptide library: Human pTyr.
With B1, the enrichment score was inactive: 1.3.

B2: the enrichment score was inactive: 0.803.

Regarding B3, the enrichment score is inactive: 0.617.

On to B4, for which the enrichment score was inactive: 0.702.

B5: the enrichment score was inactive: 0.836.

As for B6, the enrichment score is inactive: 0.531.

With B7, the enrichment score is inactive: 0.83.

In the case of B8, the enrichment score was inactive: 0.856.

Take B9: the enrichment score was inactive: 0.82.

With B10, the enrichment score is inactive: 0.722.

For the molecule B11, the enrichment score was inactive: 0.553.

With B12, the enrichment score is inactive: 0.675.

For the molecule B13, the enrichment score is inactive: 0.523.

On to B14, for which the enrichment score is inactive: 0.526.

Consider B15, for which the enrichment score is inactive: 0.697.

B16: the enrichment score was inactive: 0.484.

Turning to B17, the enrichment score was inactive: 0.531.

Take B18: the enrichment score is inactive: 0.985.

For the next assay, the target named is SHP2 N-SH2 domain T52S. The description is as above. To be noted: peptide library: Human pTyr.
For B1, the enrichment score is inactive: 1.3.

As to B2, the enrichment score is inactive: 0.964.

B3: the enrichment score is inactive: 0.632.

Turning to B4, the enrichment score is inactive: 0.921.

Regarding B5, the enrichment score is inactive: 1.01.

B6: the enrichment score is inactive: 0.513.

As for B7, the enrichment score is inactive: 0.998.

B8: the enrichment score is inactive: 0.975.

Regarding B9, the enrichment score was inactive: 0.859.

As to B10, the enrichment score was inactive: 0.794.

In the case of B11, the enrichment score was inactive: 0.657.

Take B12: the enrichment score is inactive: 0.766.

Take B13: the enrichment score is inactive: 0.719.

For B14, the enrichment score is inactive: 0.677.

B15: the enrichment score is inactive: 0.805.

B16: the enrichment score was inactive: 0.727.

For B17, the enrichment score was inactive: 0.491.

In the case of B18, the enrichment score is inactive: 1.14.

A further assay deals with SHP2 N-SH2 domain wild-type. The description is as above. To be noted: peptide library: Human pTyr.
With B1, the enrichment score was inactive: 1.31.

Consider B2, for which the enrichment score was inactive: 1.01.

Consider B3, for which the enrichment score was inactive: 0.61.

Consider B4, for which the enrichment score was inactive: 0.811.

Regarding B5, the enrichment score was inactive: 0.842.

B6: the enrichment score was inactive: 0.769.

On to B7, for which the enrichment score is inactive: 0.858.

In the case of B8, the enrichment score is inactive: 1.26.

In the case of B9, the enrichment score was inactive: 0.692.

B10: the enrichment score was inactive: 1.03.

As to B11, the enrichment score is inactive: 0.586.

On to B12, for which the enrichment score is inactive: 0.71.

For the molecule B13, the enrichment score is inactive: 0.711.

As to B14, the enrichment score was inactive: 0.584.

Take B15: the enrichment score was inactive: 0.817.

As to B16, the enrichment score was inactive: 0.617.

In the case of B17, the enrichment score is inactive: 0.623.

Turning to B18, the enrichment score is inactive: 1.22.
